Experimental data as given in PubChem BioAssay AID485294 (National Center for Advancing Translational Sciences (NCATS), 2010).
Out of some 370,000 compounds screened, about 150 (0.041%) were called active. The shares of active, inactive and inconclusive entries below differ from those in the screen. Calls come from the whole dose curve; as a rule, active = well fitted inhibition curve with a large enough effect; inconclusive = small, poorly fitted or top-dose-only effect; inactive = flat fitted curve, though single readings scatter. Potencies of inconclusive entries are left out as doubtful fits.

molecular target: Beta-lactamase (Escherichia coli (strain K12)) (UniProt P00811); assay: qHTS Inhibitors of AmpC Beta-Lactamase (assay with detergent); conditions: AmpC hydrolysis of nitrocefin, absorbance 480 nm, 0.01% Triton; series mostly up to 114 µM; note: nearly all actives have a fitted effect of over 25% in size
Sequence of UniProt P00811 (P00811 whole entry, looked up): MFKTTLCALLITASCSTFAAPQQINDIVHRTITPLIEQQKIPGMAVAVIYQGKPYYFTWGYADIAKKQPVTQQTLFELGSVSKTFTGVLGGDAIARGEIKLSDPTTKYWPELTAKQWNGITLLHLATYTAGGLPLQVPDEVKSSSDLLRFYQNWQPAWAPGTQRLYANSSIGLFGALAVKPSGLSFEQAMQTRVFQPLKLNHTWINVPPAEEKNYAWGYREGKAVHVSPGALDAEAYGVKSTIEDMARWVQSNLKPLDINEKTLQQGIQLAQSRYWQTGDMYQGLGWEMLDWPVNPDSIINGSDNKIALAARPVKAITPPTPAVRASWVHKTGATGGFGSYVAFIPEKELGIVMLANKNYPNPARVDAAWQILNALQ
Summary of the method: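 20 mM phosphate pH 7.0 + 0.01% (detergent screen) or 0.0001% Triton X-100; 5.3 nM AmpC reagent; cpd preinc 15 min RT; nitrocefin (800 uM stock) to start; A480 q20 s × 4 min; Activity was normalised to no-enzyme and no-compound control wells.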
Potency is the fitted concentration of half-maximal effect; tags give direction and shape of the fitted curve.

| SMILES | Potency |
| --- | --- |
| CCC(C)c1ccccc1NC(=O)C(C)NCCN(C)C (stereo not given) | inactive |
| O=C(c1cccc(S(=O)(=O)N2CCCC2)c1)N1CCCc2ccccc21 | inactive |
| COc1ccccc1C1C(C(C)=O)=C(C)N=c2s/c(=C\c3cc(OC)c(OC)c(OC)c3)c(=O)n21 (stereo not given) | inconclusive [inhibitor, partial curve, poor fit] |
| O=C(Nc1nc2ccccc2n1Cc1ccccc1)c1ccc(COc2ccccc2[N+](=O)[O-])o1 | inactive |
| C(=N\n1cnnc1)/c1cccc2ccccc12 | inconclusive [inhibitor, full curve, poor fit] |
| O=C(CCCc1nc(-c2ccccc2)no1)N1CCOCC1 | inconclusive [inhibitor, partial curve, poor fit] |
| CCCCCCOc1ccc(N2C(=O)CC(N3CCC(C(=O)OCC)CC3)C2=O)cc1 (stereo not given) | inactive |
| COc1nc(Cl)cn(-c2ccc(Cl)cc2)c1=O | inconclusive [inhibitor, single point] |
| CN(C)c1ccc(S(=O)(=O)N2CCCCC2)cc1NC(=O)CCNC(=O)c1ccc(Cl)cc1 | inconclusive [inhibitor, full curve, poor fit] |
| Cc1ccc(Cn2c(=O)cc(C(=O)O)c3ccccc32)cc1 | inconclusive [inhibitor, single point] |
| COc1ccc(NC(=O)CCC(=O)c2ccc(C(C)C)cc2)cc1 | inconclusive [inhibitor, full curve, poor fit] |
| CCOC(=O)N1CCN(S(=O)(=O)c2ccc(OC)c(Br)c2)CC1 | inconclusive [inhibitor, partial curve, poor fit] |
| CC1=Nc2cc(C(=O)NCc3ccco3)ccc2Sc2ccc(C)cc21 | inactive |
| Cc1ccc(NC2CCCN(C(=O)c3ccoc3C)C2)cc1C (stereo not given) | inconclusive [inhibitor, partial curve] |
| CCN(Cc1ccccc1)C(=O)Cn1c(=O)n(CCC(=O)N2CCCCC2)c(=O)c2sccc21 | inconclusive [inhibitor, full curve, poor fit] |
| COc1ccc(NC(=S)Nc2ccc(F)cc2)cc1 | inactive |
| COc1cccc(-c2cc(C(=O)Nc3cc(C)on3)no2)c1 | inconclusive [inhibitor, single point] |
| Fc1ccc(Cc2cn3cc(-c4ccc(F)cc4)nc3s2)cc1 | inactive |
| Cc1ccc(-c2noc(CSc3nnnn3C3CCCCC3)n2)cc1 | inconclusive [inhibitor, full curve, poor fit] |
| CCOC(=O)CSc1nnc(CNC(=O)c2ccc(OC)cc2)n1Cc1ccccc1 | inconclusive [inhibitor, partial curve] |
| COC(=O)c1cc(C#N)c(OC(C)C)nc1C | inconclusive [inhibitor, full curve, poor fit] |
| Cc1ccc(C)c2sc(NC(=O)c3ccc(N4C(=O)CCC4=O)cc3)nc12 | inconclusive [inhibitor, full curve, poor fit] |
| O=C(CSc1nc(C2CC2)nc2ccccc12)Nc1ccccc1N1CCOCC1 | inconclusive [inhibitor, single point] |
| Cc1ccc(-n2nc(C)c3c(C)c(CCC(=O)NCc4ccccc4Cl)c(C)nc32)cc1 | inactive |

| SMILES | Potency |
| --- | --- |
| Cc1ccccc1OCCn1nc(C(=O)O)c2ccccc2c1=O | inconclusive [inhibitor, full curve, poor fit] |
| CC(C)CN(CC(C)C)c1nc(N)c(C#N)c(CC#N)c1C#N | inconclusive [inhibitor, partial curve] |
| Cc1nn(-c2ccccc2)c(Cl)c1/C=N/Nc1ccc(S(=O)(=O)Nc2ccccc2C(=O)O)cc1[N+](=O)[O-] | inconclusive [inhibitor, single point] |
| COC(=O)Cc1ccc(NC(=S)NC2CC2)cc1 | inactive |
| COc1ccc(CCC(=O)NNC(=S)Nc2cccc(C(C)=O)c2)cc1 | inconclusive [inhibitor, single point] |
| Cc1nc(NCC2CCCO2)c2nnn(Cc3ccccc3)c2n1 (stereo not given) | inactive |
| COc1cc(N)c(Cl)cc1C(=O)OCC(=O)Nc1cccnc1Cl | inconclusive [inhibitor, partial curve] |
| COc1ccc2nc(NNC(=O)C3COc4ccccc4O3)sc2c1 (stereo not given) | inconclusive [inhibitor, partial curve, poor fit] |
| O=C(C1CCN(S(=O)(=O)c2c(Cl)cccc2Cl)CC1)N1CCCCCCC1 | inconclusive [inhibitor, full curve, poor fit] |
| O=C(CSc1ccccn1)Nc1nncs1 | inconclusive [inhibitor, partial curve, poor fit] |
| COc1ccc(C(=O)c2c(N)c(-c3nc(-c4ccccc4)cs3)c3ccccn23)cc1 | inactive |
| COc1ccc(Br)cc1CN1CCN(C(=O)c2ccco2)CC1 | inactive |
| Cc1cccc(N2C(=O)/C(=C/c3ccc(CN(CCC#N)S(C)(=O)=O)o3)C(=O)NC2=S)c1 | inconclusive [inhibitor, full curve, poor fit] |
| CCN(CC)CCCn1c2c(c(SCC(=O)Nc3ccc4c(c3)OCCO4)nc1=O)CCC2 | inconclusive [inhibitor, partial curve] |
| CC(=O)Nc1ccc(-c2cn3cc(C)ccc3n2)cc1 | inactive |
| O=C(CCNC(=O)c1ccccc1)OCC(=O)c1ccccc1 | inactive |
| COC(=O)CSc1nc(C)cc(C)n1 | inconclusive [inhibitor, full curve] |
| CC(C)c1ccc(Nc2nc(Cl)nc(NCCO)n2)cc1 | inconclusive [inhibitor, full curve, poor fit] |
| Cc1sc2ncnc(Sc3nnnn3-c3ccccc3)c2c1C | inconclusive [inhibitor, full curve, poor fit] |
| CCc1nc(N2CCN(C(=O)c3ccco3)CC2)c(C#N)c2c1COC(C)(C)C2 | inactive |
| O=[N+]([O-])c1ccc(CN2CCN(c3ncccn3)CC2)cc1 | inconclusive [inhibitor, full curve, poor fit] |
| Cc1ccc(OCC(=O)Nc2ccc(N3CCN(C(=O)c4ccco4)CC3)cc2)cc1C | inactive |
| O=C(Cc1ccc(Br)cc1)NCCc1ccc(F)cc1 | inconclusive [inhibitor, full curve] |
| COC(=O)c1cccnc1SCc1ccccc1 | inactive |

| SMILES | Potency |
| --- | --- |
| COc1cccc(N2C(=O)CC(N3CCN(S(=O)(=O)c4ccccc4)CC3)C2=O)c1 (stereo not given) | inconclusive [inhibitor, partial curve] |
| COc1ccc(Br)cc1C1CC(=O)N2CN(Cc3ccccc3)CSC2=C1C#N (stereo not given) | inconclusive [inhibitor, single point] |
| CC1(C(=O)NCc2cc(F)cc(C(F)(F)F)c2)C=CC2(CCCCC2)N1C(=O)c1ccccc1 (stereo not given) | inconclusive [inhibitor, full curve] |
| Cc1nc2ccccn2c1C(=O)/C=C/c1cccc([N+](=O)[O-])c1 | inactive |
| Cc1c(N)cc(N)cc1C(=O)O | inactive |
| CCOC(=O)c1sc(Nc2ccc(F)cc2)nc1C | inactive |
| CCN(CC)C(=O)c1cc2c(=O)n3cccc(C)c3nc2n1C | inconclusive [inhibitor, full curve] |
| CC(=O)Nc1nc(-c2ccccc2)ns1 | inconclusive [inhibitor, partial curve] |
| CCCn1c2ccccc2c2cnn(CC(=O)NC3CCCC(C)C3C)c(=O)c21 (stereo not given) | inconclusive [inhibitor, partial curve, poor fit] |
| N#Cc1ccc(CSc2nc(N)cc(N)n2)cc1 | inconclusive [inhibitor, partial curve, poor fit] |
| O=C(NN1C(=O)C2C3C=CC(C3)C2C1=O)c1ccco1 (stereo not given) | inconclusive [inhibitor, partial curve] |
| NC12CC3CC(C1)CC(O)(C3)C2 | inconclusive [inhibitor, full curve] |
| Fc1ccccc1CNC(=S)NC1CCCCC1 | inconclusive [inhibitor, full curve, poor fit] |
| O=C(NCC(c1cccnc1)N1CCc2ccccc2C1)C(=O)Nc1cccc(Cl)c1 (stereo not given) | inactive |
| COCCn1c(C)cc(/C=C(\C#N)C(=O)OCC(=O)Nc2ccc(S(N)(=O)=O)cc2)c1C | inactive |
| Cc1ccc(C(=O)Nc2sc(C(=O)N(C)C)c(C)c2C#N)cc1 | inconclusive [inhibitor, single point] |
| CC(CC1CC(C)(C)OC1=O)C(=O)Nc1nncs1 (stereo not given) | inconclusive [inhibitor, partial curve] |
| OC(c1ccccc1)c1cccnc1 (stereo not given) | inconclusive [inhibitor, partial curve] |
| COC(=O)Cn1c(CCC(=O)O)ccc1-c1ccccc1 | inconclusive [inhibitor, full curve, poor fit] |
| N#C/C(=C(/O)COc1ccc(Br)cc1)c1nnc2n1CCCCC2 | inconclusive [inhibitor, full curve, poor fit] |
| Cc1ccccc1CS(=O)(=O)Cc1ccc(C(=O)N2CCOCC2)o1 | inconclusive [inhibitor, partial curve, poor fit] |
| COc1ccc(NC(=O)C2CCCN(S(=O)(=O)c3ccc4[nH]c(=O)ccc4c3)C2)cc1OC (stereo not given) | inactive |
